Where a name gives a salt, the structure may show the parent alone. This is one part of the list. Single values are uncertain, as repeats are few or missing.
How the values were obtained:
[1] = test system: KB-3-1; test: growth inhibition relative to DMSO control (SRB); cervical cancer cells: KB-3-1 is the parent and KB-V1 overexpresses MDR1; SRB is the sulforhodamine B stain; higher = more growth inhibition; settings: 1 µM; 72 h
[2] = test system: KB-V1; test: as above; settings: 1 µM; 72 h
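Further: Read-out is SRB optical density at 490 nm, with the control being wells given 0.5% DMSO vehicle, and compound added one day after cells were plated.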

| SMILES | growth inhibition [1] [%] | growth inhibition [2] [%] |
| --- | --- | --- |
| O=c1c(-c2ccc(O)cc2)coc2cc(O)cc(O)c12 [Genistein] | 14 | 35.9 |
| OC[C@@H](O)CN1CCN(c2ccccc2)CC1 [Levodropropizine] | 7.21 | 20.5 |
| C[C@@H](c1ncncc1F)[C@](O)(Cn1cncn1)c1ccc(F)cc1F [Voriconazole] | 14.6 | 34 |
| NC(=O)c1cccc(-c2cccc(OC(=O)NC3CCCCC3)c2)c1 | 24.2 | < 0 |
| CCOc1nc2cccc(C(=O)OCc3oc(=O)oc3C)c2n1Cc1ccc(-c2ccccc2-c2noc(=O)[nH]2)cc1 [Azilsartan Medoxomil] | < 0 | 7.07 |
| COC1=CC(c2cc3ccccc3[nH]2)=N/C1=C\c1[nH]c(C)cc1C [Obatoclax Mesylate (GX15-070)] | 93.6 | 95.9 |
| C#CCN[C@@H]1CCc2ccccc21 [Rasagiline Mesylate] | < 0 | 40.2 |
| Cc1nccn1CC1CCc2c(c3ccccc3n2C)C1=O (stereo unspecified) [Ondansetron HCl] | 9.21 | 29.3 |
| CCNC(=O)c1[nH]nc(-c2cc(Cl)c(O)cc2O)c1-c1ccc(OC)cc1 | 58.1 | 17.9 |
| CCCN[C@H]1CCc2nc(N)sc2C1 [Pramipexole] | 26.9 | 12.8 |
| Cc1ccc(O)c([C@H](CCN(C(C)C)C(C)C)c2ccccc2)c1 [Tolterodine tartrate] | 26 | 5.32 |
| CC(C(=O)O)c1ccc2c(c1)CC(=O)c1ccccc1S2 (stereo unspecified) [Zaltoprofen] | < 0 | 3.17 |
| O=C(Nc1cccnc1)N1CCC(Cc2cccc(Oc3ccc(C(F)(F)F)cn3)c2)CC1 | < 0 | 7.81 |
